Experimental data taken from PubChem BioAssay AID1030 (National Center for Advancing Translational Sciences (NCATS), 2008).
Out of some 220,000 compounds screened, about 16,000 (7.3%) were called active. Inconclusive results, whose numbers are uncertain, are shown with a selection of clear calls. Calls come from the whole dose curve; as a rule, active = well fitted inhibition curve with a large enough effect (not every such curve was filed as active); inconclusive = small, poorly fitted or top-dose-only effect, or another doubt; inactive = no such curve, though single readings can be large or run the other way. No potency is given beside an inconclusive call; the fits are too rough.

biological target: Aldehyde dehydrogenase 1A1 (Homo sapiens) (UniProt P00352); assay: qHTS Assay for Inhibitors of Aldehyde Dehydrogenase 1 (ALDH1A1); details: Purified ALDH1A1, NADH fluorescence, propionaldehyde substrate; series mostly up to 75.3 µM
Chain of UniProt P00352 (P00352 whole entry, looked up): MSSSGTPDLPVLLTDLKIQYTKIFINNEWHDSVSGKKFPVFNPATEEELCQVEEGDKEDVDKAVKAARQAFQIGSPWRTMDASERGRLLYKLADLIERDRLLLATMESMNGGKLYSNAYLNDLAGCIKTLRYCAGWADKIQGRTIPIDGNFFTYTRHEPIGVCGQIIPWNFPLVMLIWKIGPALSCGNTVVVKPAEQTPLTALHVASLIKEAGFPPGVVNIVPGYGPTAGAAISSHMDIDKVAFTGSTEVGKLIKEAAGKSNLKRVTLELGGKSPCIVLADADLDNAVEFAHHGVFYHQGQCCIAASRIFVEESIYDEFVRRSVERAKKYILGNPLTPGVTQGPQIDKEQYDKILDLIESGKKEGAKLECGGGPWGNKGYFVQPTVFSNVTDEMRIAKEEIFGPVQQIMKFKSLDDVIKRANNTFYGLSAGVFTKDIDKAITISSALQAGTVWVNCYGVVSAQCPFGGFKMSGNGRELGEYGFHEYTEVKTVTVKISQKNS
Potency is the fitted concentration of half-maximal effect; tags give direction and shape of the fitted curve.

Compound | Potency
CCCCCCCn1c(=N)n(CC(O)c2ccco2)c2ccccc21 (centres undefined) | inactive
COc1ccc(C(=O)c2cnc3ccccc3c2-c2ccccc2)cc1 | active: 1.41 µM
O=C1CCCC/C1=C\Nc1ccc(Cl)cn1 | inconclusive [inhibitor, single point]
CCC(c1nnnn1CC1CCCO1)N(CCCO)Cc1cc2cccc(C)c2[nH]c1=O (centres undefined) | inconclusive [inhibitor, single point]
COc1ccc([N+](=O)[O-])cc1/C=N/NC(=O)CNC(=O)C(c1ccccc1)c1ccccc1 | inconclusive [inhibitor, single point]
COc1[nH]c2ccc(F)cc2c1C(=O)OCC1CCN(CCNS(C)(=O)=O)CC1 | inactive
NNC(=O)c1ccc2c(c1)S(=O)(=O)NNC2=O | inconclusive [inhibitor, single point]
CSc1nnc(C)c(/C=C/Nc2ccc(F)cc2)n1 | inactive
CCN=c1scc(C)n1/N=C/c1ccc(O)c(O)c1O | active: 10 µM
CCOC(=O)C1CCN(Cc2ccc(O)c3ncccc23)CC1 | inconclusive [inhibitor, single point]
C/C(=N\NS(=O)(=O)c1ccc(Cl)c([N+](=O)[O-])c1)c1cc2ccccc2o1 | inconclusive [inhibitor, single point]
COc1cnc(-c2ccccn2)nc1Sc1cccc(Cl)c1 | inconclusive [inhibitor, partial curve]
COC(=O)c1ccc(C(=O)OC)c(NC(=O)COc2ccccc2OC)c1 | active: 12.6 µM
CN(CCNC(=O)C1(O)c2ccccc2NC(=O)N1c1ccccc1)Cc1ccccc1 (centres undefined) | inconclusive [inhibitor, partial curve]
O=C(NCc1ccccc1)C1=C[C@H](c2ccc3c(c2)OCO3)C[C@H](OCCCCO)O1 | inconclusive [inhibitor, single point]
O=C(CC1S/C(=N\S(=O)(=O)c2ccccc2)N(c2ccccc2)C1=O)Nc1ccc(F)cc1 (centres undefined) | active: 25.1 µM
CCCCc1[nH]c(=O)c(C#N)c2c1CCCC2 | inconclusive [inhibitor, partial curve]
N#Cc1c(-c2ccccc2)nc(SCC(=O)Nc2ccccc2)[nH]c1=O | inactive
Cc1ccc2nc3c(c(C(=O)OC4CCOC4=O)c2c1)CCCC3 (centres undefined) | inconclusive [inhibitor, partial curve]
O=C(Nc1nc2c(F)cc(F)cc2s1)c1ccccn1 | active: 10 µM
Cc1cc(-c2nc3cccnc3s2)ccc1NS(=O)(=O)c1cccs1 | inconclusive [inhibitor, partial curve]
CCOC(=O)C(C)(C)n1nnc(-c2ccc([N+](=O)[O-])cc2)n1 | inactive
Cc1cc(C)nc(NC(=O)/C=C/c2ccc(Cl)cc2)n1 | inactive
Cc1cc(C)nc(Sc2ncnc3sc4c(c23)CCC4)n1 | inconclusive [inhibitor, single point]
COc1ccc(-c2c(C)n([O-])c3c([n+]2=O)CCCCC3)cc1OC | inactive

Compound | Potency
N#Cc1cccc(-c2nc3cnc(N4CCNCC4)nc3n(C3CC3)c2=O)c1 | inconclusive [inhibitor, partial curve]
CCOC(=O)c1sc2cccc(Cl)c2c1N | inconclusive [inhibitor, single point]
CCn1c(SCC(=O)O)nnc1C1CCCCC1 | inactive
Cn1c(COc2ccc([N+](=O)[O-])cc2)nnc1SCC(N)=O | inconclusive [inhibitor, single point]
CCOc1ccc2[nH]c(=O)c(C(c3nnnn3Cc3ccco3)N3CCCC(C)C3)cc2c1 (centres undefined) | inconclusive [inhibitor, partial curve]
COCCn1nnnc1C(C(C)C)N1CCSCC1 (centres undefined) | inactive
CCCCC1(C)Nc2ccccc2-c2nc3ccccc3n21 (centres undefined) | inconclusive [inhibitor, partial curve]
COC(=O)CNC(=O)CSc1nc(N)cc(=O)[nH]1 | inactive
CCOc1ccccc1N | inconclusive [inhibitor, single point]
CC(=O)c1cccc(NC(=O)C2CC(=O)N(Cc3ccccc3)C2)c1 (centres undefined) | inactive
Cc1cccc(N=Cc2cc(Br)cc(Cl)c2O)c1 | inactive
N#C/C(=N\Nc1cccc(F)c1)C(=N)N1CCCCCC1 | inactive
O=C(CSc1ccccc1)NCc1ccc(F)cc1 | inconclusive [inhibitor, single point]
Cc1ccsc1C=Nc1ccc(O)cc1 | inconclusive [inhibitor, single point]
Cc1ccc(N2C(=O)SC(N(CC(=O)O)c3ccc(C)cc3)C2=O)cc1 (centres undefined) | inactive
c1ccc(C(c2ccccc2)N2CC[C@@]3(CCCNC3)C2)cc1 | inconclusive [inhibitor, single point]
O=C(Cc1ccc(F)cc1)N/N=C/c1ccc(-c2ccc(Cl)c(C(=O)O)c2)o1 | inconclusive [inhibitor, partial curve]
N=C1N=C(N)c2cc3ccccc3cc21 | inconclusive [inhibitor, partial curve]
COc1ccccc1-c1nnc(NC(=O)c2ccc(S(=O)(=O)N(C)C)cc2)o1 | inactive
Cc1cc(C(=O)O)ccc1-c1ccc(CO)o1 | inconclusive [inhibitor, partial curve]
CCOc1ccc(C2=CS/C(=C(\C#N)c3nnc4n3CCCCC4)N2CC)cc1 | inconclusive [inhibitor, partial curve]
CCn1c(-c2cc(-c3cc(C)ccc3C)nc3ccccc23)n[nH]c1=S | inconclusive [inhibitor, single point]
COc1ccc(N2C(=O)C3CCCN3C2c2ccccc2F)cc1 (centres undefined) | inconclusive [inhibitor, partial curve]
Cc1ccccc1N/C(=C(/C(Cl)=C(Cl)Cl)[N+](=O)[O-])n1nnc2ccccc21 | active: 14.1 µM
